MIC of clinical C. albicans isolates, CLSI broth microdilution (ranges and time not stated); higher = less susceptible. Call: susceptible or wild type [S] / resistant or non-wild type [R] by CLSI breakpoints or epidemiological cut-offs; intermediate and dose-dependent carry no call here (the paper groups them with resistant). '<=' and '>=' mark each drug's lowest and highest value, inferred; the source prints them plain. Isolates are numbered anew.
Assays:
Test in all cases: CLSI broth microdilution.
posaconazole = compound: CC[C@@H]([C@H](C)O)n1ncn(-c2ccc(N3CCN(c4ccc(OC[C@@H]5CO[C@@](Cn6cncn6)(c6ccc(F)cc6F)C5)cc4)CC3)cc2)c1=O [posaconazole]
micafungin = compound: CCCCCOc1ccc(-c2cc(-c3ccc(C(=O)N[C@H]4C[C@@H](O)[C@@H](O)NC(=O)[C@@H]5[C@@H](O)[C@@H](C)CN5C(=O)[C@H]([C@H](O)CC(N)=O)NC(=O)[C@H]([C@H](O)[C@@H](O)c5ccc(O)c(OS(=O)(=O)O)c5)NC(=O)[C@@H]5C[C@@H](O)CN5C(=O)[C@H]([C@@H](C)O)NC4=O)cc3)no2)cc1 [micafungin]
caspofungin = compound: CC[C@H](C)C[C@H](C)CCCCCCCCC(=O)N[C@H]1C[C@@H](O)[C@@H](NCCN)NC(=O)[C@@H]2[C@@H](O)CCN2C(=O)[C@H]([C@H](O)CCN)NC(=O)[C@H]([C@H](O)[C@@H](O)c2ccc(O)cc2)NC(=O)[C@@H]2C[C@@H](O)CN2C(=O)[C@H]([C@@H](C)O)NC1=O [caspofungin]
anidulafungin = compound: CCCCCOc1ccc(-c2ccc(-c3ccc(C(=O)N[C@H]4C[C@@H](O)[C@@H](O)NC(=O)[C@@H]5[C@@H](O)[C@@H](C)CN5C(=O)[C@H]([C@@H](C)O)NC(=O)[C@H]([C@H](O)[C@@H](O)c5ccc(O)cc5)NC(=O)[C@@H]5C[C@@H](O)CN5C(=O)[C@H]([C@@H](C)O)NC4=O)cc3)cc2)cc1 [anidulafungin]
voriconazole = compound: C[C@@H](c1ncncc1F)[C@](O)(Cn1cncn1)c1ccc(F)cc1F [voriconazole]
itraconazole = compound: CCC(C)n1ncn(-c2ccc(N3CCN(c4ccc(OCC5COC(Cn6cncn6)(c6ccc(Cl)cc6Cl)O5)cc4)CC3)cc2)c1=O [itraconazole]
flucytosine = compound: Nc1[nH]c(=O)ncc1F [flucytosine]
amphotericin B = compound: C[C@@H]1[C@H](O)[C@@H](C)/C=C/C=C/C=C/C=C/C=C/C=C/C=C/[C@H](O[C@@H]2O[C@H](C)[C@@H](O)[C@H](N)[C@@H]2O)C[C@@H]2O[C@](O)(C[C@@H](O)C[C@@H](O)[C@H](O)CC[C@@H](O)C[C@@H](O)CC(=O)O[C@H]1C)C[C@H](O)[C@H]2C(=O)O [amphotericin B]
fluconazole = compound: OC(Cn1cncn1)(Cn1cncn1)c1ccc(F)cc1F [fluconazole]

Test System	MIC (posaconazole)	MIC (micafungin)	MIC (caspofungin)	MIC (anidulafungin)	MIC (voriconazole)	MIC (itraconazole)	MIC (flucytosine)	MIC (amphotericin B)	MIC (fluconazole)
Candida albicans isolate 131 (Erg11p: Y257H,A114S, Fur1p: R101C, Tac1p: A736V)	0.5 mg/L [R]	0.015 mg/L [S]	0.015 mg/L [S]	≤ 0.015 mg/L [S]	1 mg/L [R]	0.5 mg/L [R]	0.25 mg/L [S]	0.5 mg/L [S]	16 mg/L [R]
Candida albicans isolate 24 (Erg11p: WT, Fur1p: WT, Tac1p: I558V,A377V,F189S,N174D,M170I,K87N)	0.015 mg/L [S]	≤ 0.008 mg/L [S]	0.03 mg/L [S]	0.06 mg/L [S]	≤ 0.008 mg/L [S]	≤ 0.015 mg/L [S]	≤ 0.06 mg/L [S]	0.5 mg/L [S]	0.25 mg/L [S]
Candida albicans isolate 168 (Erg11p: H283L,E266D, Fur1p: WT, Tac1p: I558V)	0.015 mg/L [S]	≤ 0.008 mg/L [S]	0.03 mg/L [S]	0.12 mg/L [S]	≤ 0.008 mg/L [S]	≤ 0.015 mg/L [S]	≤ 0.06 mg/L [S]	0.5 mg/L [S]	0.5 mg/L [S]
Candida albicans isolate 154 (Erg11p: V488I,E266D, Fur1p: WT, Tac1p: N896S,I895T)	0.03 mg/L [S]	0.015 mg/L [S]	0.03 mg/L [S]	≤ 0.015 mg/L [S]	≤ 0.008 mg/L [S]	0.03 mg/L [S]	≤ 0.06 mg/L [S]	0.5 mg/L [S]	0.5 mg/L [S]
Candida albicans isolate 276 (Erg11p: WT, Fur1p: WT, Tac1p: N896S)	0.015 mg/L [S]	≤ 0.008 mg/L [S]	0.03 mg/L [S]	≤ 0.015 mg/L [S]	≤ 0.008 mg/L [S]	0.03 mg/L [S]	≤ 0.06 mg/L [S]	0.5 mg/L [S]	0.25 mg/L [S]
Candida albicans isolate 26 (Erg11p: WT, Fur1p: WT, Tac1p: N896S)	0.12 mg/L [R]	0.03 mg/L [S]	0.03 mg/L [S]	0.12 mg/L [S]	0.06 mg/L [S]	0.12 mg/L [S]	≤ 0.06 mg/L [S]	1 mg/L [S]	1 mg/L [S]
Candida albicans isolate 293 (Erg11p: D153E, Fur1p: WT, Tac1p: N896S)	0.03 mg/L [S]	≤ 0.008 mg/L [S]	0.03 mg/L [S]	0.06 mg/L [S]	≤ 0.008 mg/L [S]	0.03 mg/L [S]	≤ 0.06 mg/L [S]	0.5 mg/L [S]	0.25 mg/L [S]
Candida albicans isolate 71 (Erg11p: Y132H,T123I, Fur1p: R101C, Tac1p: WT)	0.06 mg/L [S]	≤ 0.008 mg/L [S]	0.03 mg/L [S]	≤ 0.015 mg/L [S]	0.5 µg/mL	0.12 mg/L [S]	0.25 mg/L [S]	0.5 mg/L [S]	4 µg/mL
Candida albicans isolate 298 (Erg11p: E266D,G129A, Fur1p: WT, Tac1p: R869Q,L695F,I558V,A377V,F189S,M170V,L131I)	0.06 mg/L [S]	0.03 mg/L [S]	0.12 mg/L [S]	0.12 mg/L [S]	0.06 mg/L [S]	0.12 mg/L [S]	0.12 mg/L [S]	0.5 mg/L [S]	1 mg/L [S]

From the supplement of paper PMC9927326
